According to the supplement of paper PMC9433436:
± gives the standard deviation of the averaged measurements. Whole data set: some 4,100 sequences, median “relative kcat/Km (krel) vs genomic leader AAAGAU” near 1.7, cut for the highest 2% near 6.5. Only a part is listed here, and it is no random draw.

Target: T1, E. coli RNase P holoenzyme (M1 P RNA + rnpA protein) (UniProt P0A7Y8)
T1 sequence: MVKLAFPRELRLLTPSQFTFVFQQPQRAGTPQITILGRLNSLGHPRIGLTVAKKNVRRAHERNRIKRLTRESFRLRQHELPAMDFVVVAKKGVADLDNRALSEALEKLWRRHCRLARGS
Test: relative kcat/Km (krel) vs genomic leader AAAGAU (relative (reference leader = 1)); higher = faster RNase P cleavage
Outline: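 A precursor tRNA-Met pool randomized at leader positions −6 to −1 was cleaved by E. coli RNase P holoenzyme (P RNA plus C5 protein) under multiple-turnover conditions at 37 °C in 50 mM Tris-HCl pH 8, 100 mM NaCl, 17.5 mM MgCl2. Unreacted precursor was gel-purified at ~5–30% conversion, converted to cDNA libraries and Illumina-sequenced. Relative kcat/Km (krel) was calculated by internal competition kinetics from read ratios, normalised to the genomic leader, averaging two technical replicates.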

[1] = fraction of substrate reacted: ~9-10% (9.79% repeat 1, 9.1% repeat 2)
[2] = fraction of substrate reacted: ~13-16% (15.68% repeat 1, 13.17% repeat 2)
[3] = fraction of substrate reacted: ~26-29% (28.66% repeat 1, 26.4% repeat 2)

Sequence | relative kcat/Km [1] | relative kcat/Km [2] | relative kcat/Km [3]
ACTCGA | 1.74 ± 0.93 | 2.54 ± 1.1 | 3.65 ± 2
GGTACG | 0.17 ± 0.045 | 0.269 ± 0.21 | 0.942 ± 0.29
AGGGTG |  |  | 0.781 ± 0.46
AAGGCC | 1.03 ± 0.69 | 0.769 ± 0.38 | 0.617 ± 0.19
AAATAC | 3.07 ± 1.1 | 3.56 ± 0.56 | 4 ± 1.8
GGGTCT | 1.04 ± 0.47 | 1.13 ± 0.23 | 1.37 ± 0.76
CGCAGG | 0.668 ± 0.38 |  | 0.94 ± 0.17
CGAAAA | 2.58 ± 0.86 | 2.7 ± 0.77 | 3.14 ± 0.49
GCAAAA | 1.46 ± 0.48 | 1.01 ± 0.16 | 1.62 ± 0.085
AACTAG | 3.36 ± 2.5 | 2.8 ± 0.61 | 3.95 ± 1.3
GTGAGC | 1.37 ± 0.77 |  | 0.899 ± 0.22
GAAAGC | 0.551 ± 0.55 | 1.1 ± 0.23 | 1.65 ± 0.33
CGACAA | 2.26 ± 0.23 | 2.76 ± 0.51 | 3.75 ± 1.6
CACTGT | 1.07 ± 0.037 | 0.947 ± 0.35 | 1.51 ± 1.1
GTGCGC | 1.02 ± 0.27 | 0.935 ± 0.55 | 1.09 ± 0.13
GGCGGA | 0.884 ± 0.18 |  | 0.846 ± 0.087
ACCTGG |  | 0.57 ± 0.51 | 0.814 ± 0.66
TACGAG |  | 1.58 ± 0.12 | 3.95 ± 1.1
ACGCTT | 2.26 ± 1.3 | 1.75 ± 0.037 | 2.37 ± 0.48
CGCAAG | 1.46 ± 0.29 |  | 2.65 ± 0.79
TGACCC | 1.17 ± 0.58 | 1.43 ± 0.08 | 2.4 ± 0.75
TATTGT | 0.735 ± 0.4 |  | 
CAGTGG | 0.302 ± 0.14 |  | 0.408 ± 0.26

Sequence | relative kcat/Km [1] | relative kcat/Km [2] | relative kcat/Km [3]
GCCAGA | 2.6 ± 2 | 2.26 ± 0.32 | 5.56 ± 1.6
CGGTGG |  |  | 0.504 ± 0.058
GGGAGC | 1.09 ± 0.46 | 0.558 ± 0.31 | 1.57 ± 0.53
GTGTTT | 1.1 ± 0.71 | 1.047 ± 0.0059 | 1.58 ± 0.46
GTAGAG | 0.308 ± 0.012 |  | 1.61 ± 0.57
ACGTAA | 3.08 ± 0.62 | 3.67 ± 0.69 | 4.77 ± 1.8
ACCACT |  | 0.207 ± 0.16 | 2.06 ± 0.71
TTCGGT |  |  | 3.02 ± 2.2
TAGGAA | 1.43 ± 0.52 | 1.98 ± 0.13 | 2.09 ± 1.2
GCAATC |  | 1.31 ± 0.5 | 1.5 ± 0.14
AGCAAG |  | 0.819 ± 0.47 | 1.88 ± 0.14
GCCGTT | 1.32 ± 0.54 | 1.13 ± 0.51 | 1.97 ± 0.41
GTAGGC |  |  | 2.05 ± 1.9
AACTTT | 3.39 ± 1.9 | 3.57 ± 0.39 | 4.58 ± 1.3
CAAGCT | 1.48 ± 1.3 | 0.905 ± 0.4 | 1.37 ± 0.37
CATTCT | 2.79 ± 1.2 | 3.18 ± 0.076 | 4.94 ± 2
TCCCCT | 3.28 ± 1.2 | 3.35 ± 0.21 | 4.76 ± 1.9
TAGATA | 2.17 ± 1.9 | 1.51 ± 0.61 | 1.57 ± 0.091
TATACG |  | 0.461 ± 0.31 | 1.68 ± 0.28
CAACGT |  |  | 1.63 ± 1.3
ACGTCG | 0.568 ± 0.2 | 0.215 ± 0.19 | 1.77 ± 0.74
TTATGC | 3.22 ± 0.63 | 4.29 ± 0.74 | 6.16 ± 2.8
CTTAAA | 2.84 ± 0.53 | 3.1 ± 0.059 | 4.16 ± 1.7

Sequence | relative kcat/Km [1] | relative kcat/Km [2] | relative kcat/Km [3]
CTCCTT | 3.67 ± 1.4 | 4.28 ± 0.77 | 6.06 ± 2.3
GGAACC | 1.31 ± 0.59 | 0.943 ± 0.18 | 1.19 ± 0.1
TGGCCC | 1.09 ± 0.3 | 1.02 ± 0.47 | 0.704 ± 0.26
TGTCTA | 1.53 ± 0.11 | 2.45 ± 0.35 | 3.36 ± 1.4
GCAACA |  | 0.326 ± 0.15 | 0.512 ± 0.39
ACTGTG |  |  | 0.633 ± 0.34
GACTTG |  | 1.11 ± 0.46 | 2.5 ± 0.16
CTGGGC | 0.978 ± 0.65 |  | 
CGTACC |  | 1.08 ± 0.15 | 2.06 ± 0.55
TAACTT | 2.28 ± 0.99 | 2.24 ± 0.28 | 2.7 ± 1
GGAGAC | 2.08 ± 1.6 | 1.75 ± 0.35 | 2.59 ± 0.3
GTGAAA | 1.27 ± 0.4 | 1.73 ± 0.38 | 2.56 ± 0.8
TGGATA | 0.452 ± 0.072 |  | 0.938 ± 0.49
AATCAT | 3.17 ± 2 | 2.88 ± 0.24 | 4.38 ± 1.7
GAGACT | 0.969 ± 0.47 | 0.865 ± 0.66 | 1.65 ± 0.52
TTCCCC | 3.49 ± 1.7 | 4.17 ± 0.71 | 5.59 ± 1.9
TGGGGC | 0.418 ± 0.024 |  | 1.58 ± 1.6
TCCGAG | 2.34 ± 0.033 | 2.52 ± 1.4 | 5.01 ± 2.2
AGATGC | 2.42 ± 0.73 | 2.8 ± 0.16 | 3.74 ± 0.99
CGCGCT | 1.66 ± 0.52 | 0.984 ± 0.065 | 1.71 ± 0.53
AAGGAA |  | 1.09 ± 0.62 | 0.94 ± 0.12
GGTTAT | 0.926 ± 0.33 | 1.69 ± 0.19 | 2.83 ± 1.2
